Test [1] deals with T1, soluble hTNF-R1 (Peprotech) (human, UniProt P19438 30-211).
T1 construct: extracellular domain; also called p55
T1 sequence (looked up): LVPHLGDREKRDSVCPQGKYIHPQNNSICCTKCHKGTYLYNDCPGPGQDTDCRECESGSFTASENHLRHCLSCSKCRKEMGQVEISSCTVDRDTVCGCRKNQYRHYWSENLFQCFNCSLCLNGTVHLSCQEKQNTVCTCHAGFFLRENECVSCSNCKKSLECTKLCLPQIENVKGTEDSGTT
In words: BLI (Octet RED96), His-tagged TNF on HIS1K biosensor, soluble receptor in solution, 1:1 global fit. As to the method: (§1) KD values were calculated using global fitting with a 1:1 model (R²≥0.95).

The target in test [2] is T2, soluble hTNF-R2 (Peprotech) (human, UniProt P20333 23-257).
T2 construct: extracellular domain; also called p75
T2 sequence (looked up): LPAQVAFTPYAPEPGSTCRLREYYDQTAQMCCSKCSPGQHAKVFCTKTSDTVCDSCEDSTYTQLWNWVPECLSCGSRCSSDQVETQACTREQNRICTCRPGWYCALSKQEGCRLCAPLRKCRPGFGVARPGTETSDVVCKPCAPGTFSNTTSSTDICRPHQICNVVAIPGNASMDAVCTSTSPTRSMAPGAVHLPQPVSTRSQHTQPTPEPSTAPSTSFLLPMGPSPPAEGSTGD
The test is described as above. As to the method: as §1

Test [3] deals with T1, soluble hTNF-R1 (Peprotech). The test can be described thus: BLI (Octet RED96), affinity relative to WT hTNF. The procedure: as §1

B1: hTNF wild type (N-terminal 6xHis tag) (ligand)
chain: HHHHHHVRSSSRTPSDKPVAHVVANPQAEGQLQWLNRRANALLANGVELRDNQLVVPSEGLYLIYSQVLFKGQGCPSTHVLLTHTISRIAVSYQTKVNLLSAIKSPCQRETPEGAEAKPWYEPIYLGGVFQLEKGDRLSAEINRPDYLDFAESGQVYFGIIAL
notes: also called WT; WT hTNF
B1: the dissociation constant Kd in test [1] came to 10.2 nM; in test [2], 23.7 nM.

B2: hTNF mutant Y87F (N-terminal 6xHis tag) (ligand)
chain: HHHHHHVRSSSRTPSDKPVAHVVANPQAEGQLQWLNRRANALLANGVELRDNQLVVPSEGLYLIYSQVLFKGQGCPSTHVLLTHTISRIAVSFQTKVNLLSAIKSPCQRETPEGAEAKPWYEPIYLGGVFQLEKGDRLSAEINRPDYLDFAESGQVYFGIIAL
For B2, the “% WT R1” value in test [3] stood at 8.84%. The molecule further displayed an equilibrium dissociation constant (Kd) in test [1] of 116 nM.

B3: hTNF mutant R32W S86T (N-terminal 6xHis tag) (ligand)
chain: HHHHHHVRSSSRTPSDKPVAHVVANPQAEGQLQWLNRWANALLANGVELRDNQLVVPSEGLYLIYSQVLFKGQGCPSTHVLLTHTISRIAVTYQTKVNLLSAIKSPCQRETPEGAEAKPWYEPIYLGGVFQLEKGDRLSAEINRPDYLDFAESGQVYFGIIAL
notes: also called His-TNF mutant
For the molecule B3, the “% WT R1” value in test [3] came out at 22.1%. Also, the Kd in test [1] was 46.3 nM.

B4: hTNF mutant A145T S147D (N-terminal 6xHis tag) (ligand)
chain: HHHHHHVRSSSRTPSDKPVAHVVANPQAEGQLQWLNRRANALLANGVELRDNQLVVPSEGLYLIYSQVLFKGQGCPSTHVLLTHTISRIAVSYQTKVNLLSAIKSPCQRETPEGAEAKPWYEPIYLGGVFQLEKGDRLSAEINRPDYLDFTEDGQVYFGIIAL
In test [2], B4 gave a dissociation constant Kd of 7.36 nM.

B5: hTNF mutant R32W E146K (N-terminal 6xHis tag) (ligand)
chain: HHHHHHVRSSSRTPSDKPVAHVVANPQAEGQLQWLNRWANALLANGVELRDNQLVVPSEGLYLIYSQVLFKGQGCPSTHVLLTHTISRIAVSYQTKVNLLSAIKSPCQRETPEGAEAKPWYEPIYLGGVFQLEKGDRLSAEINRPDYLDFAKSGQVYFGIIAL
For the molecule B5, the “% WT R1” value in test [3] came to 15%. The dissociation constant Kd in test [1] amounted to 68.5 nM.

B6: hTNF mutant L29S R32W (N-terminal 6xHis tag) (ligand)
chain: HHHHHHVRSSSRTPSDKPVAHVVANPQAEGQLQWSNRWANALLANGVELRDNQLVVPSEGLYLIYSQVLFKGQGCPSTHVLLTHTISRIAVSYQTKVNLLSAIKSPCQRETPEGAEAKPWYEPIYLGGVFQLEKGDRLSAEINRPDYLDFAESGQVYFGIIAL
notes: also called L29 R32W
Turning to B6, the “% WT R1” value in test [3] was 30.6%. In addition, the Kd in test [1] came to 33.4 nM; in test [2], 1260 nM.

B7: hTNF mutant A145R (N-terminal 6xHis tag) (ligand)
chain: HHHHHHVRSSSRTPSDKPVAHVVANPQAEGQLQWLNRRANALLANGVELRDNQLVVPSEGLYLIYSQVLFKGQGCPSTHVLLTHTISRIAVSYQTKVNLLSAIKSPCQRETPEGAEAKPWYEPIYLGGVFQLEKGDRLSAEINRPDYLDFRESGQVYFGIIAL
notes: also called His-TNF mutant
For B7, the Kd in test [2] is 44 nM.

B8: hTNF mutant Y87H (N-terminal 6xHis tag) (ligand)
chain: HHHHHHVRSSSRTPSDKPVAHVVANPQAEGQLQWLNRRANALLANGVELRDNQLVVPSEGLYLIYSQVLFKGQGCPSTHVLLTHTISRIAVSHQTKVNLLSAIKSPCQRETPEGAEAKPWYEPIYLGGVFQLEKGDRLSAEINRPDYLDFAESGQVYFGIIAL
B8: the “% WT R1” value in test [3] was found to be 15.7%. For the same molecule, the Kd was 65.1 nM in test [1] and 214 nM in test [2].

B9: hTNF mutant S86T (N-terminal 6xHis tag) (ligand)
chain: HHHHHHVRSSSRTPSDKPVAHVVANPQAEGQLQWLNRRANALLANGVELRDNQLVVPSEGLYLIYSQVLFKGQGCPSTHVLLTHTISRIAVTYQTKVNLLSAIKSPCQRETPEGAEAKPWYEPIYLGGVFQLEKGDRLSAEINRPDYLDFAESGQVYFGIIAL
Regarding B9, the “% WT R1” value in test [3] is 41.5%. The Kd in test [1] came to 24.7 nM; in test [2], 220 nM.

B10: hTNF mutant E146K (N-terminal 6xHis tag) (ligand)
chain: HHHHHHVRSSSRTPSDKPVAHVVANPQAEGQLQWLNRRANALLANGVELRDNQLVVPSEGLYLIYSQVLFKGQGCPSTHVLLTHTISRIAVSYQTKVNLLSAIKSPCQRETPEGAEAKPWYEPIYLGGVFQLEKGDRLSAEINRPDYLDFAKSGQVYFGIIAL
notes: also called His-TNF mutant
Consider B10, for which the “% WT R1” value in test [3] turned out to be 17.7%. Besides, the equilibrium dissociation constant (Kd) in test [1] came out at 57.9 nM; in test [2] it was 4810 nM.

B11: hTNF mutant L29S (N-terminal 6xHis tag) (ligand)
chain: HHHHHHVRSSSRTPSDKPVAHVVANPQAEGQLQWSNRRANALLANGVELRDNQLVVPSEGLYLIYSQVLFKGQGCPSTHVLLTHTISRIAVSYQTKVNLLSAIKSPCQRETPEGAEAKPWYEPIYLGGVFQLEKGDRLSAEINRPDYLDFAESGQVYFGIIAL
As for B11, the “% WT R1” value in test [3] worked out at 22.6%. Besides, the Kd came out at 45.3 nM in test [1] and 130 nM in test [2].

B12: hTNF mutant D143N A145R (N-terminal 6xHis tag) (ligand)
chain: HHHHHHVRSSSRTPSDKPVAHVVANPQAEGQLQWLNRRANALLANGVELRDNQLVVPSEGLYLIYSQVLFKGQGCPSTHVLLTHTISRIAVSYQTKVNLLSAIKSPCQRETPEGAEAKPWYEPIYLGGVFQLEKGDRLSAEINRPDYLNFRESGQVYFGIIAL
B12 yielded a Kd in test [2] of 138 nM.

Values taken from patent US20230287131A1 (ORIONIS BIOSCIENCES, published 2023).
